Measurements from article PMC4336329 (PLoS ONE, 2015).
Screen size: about 310,000 compounds; about 2,200 (0.71%) showed an effect of 50% or more. The effect is printed as a negative number. The list shows a part of the results.

molecular target: human ether-à-go-go-related gene (hERG) potassium channel (human, UniProt Q12809); assay: primary screen, population patch clamp on CHO cells stably expressing hERG
Sequence (Q12809 whole entry, looked up): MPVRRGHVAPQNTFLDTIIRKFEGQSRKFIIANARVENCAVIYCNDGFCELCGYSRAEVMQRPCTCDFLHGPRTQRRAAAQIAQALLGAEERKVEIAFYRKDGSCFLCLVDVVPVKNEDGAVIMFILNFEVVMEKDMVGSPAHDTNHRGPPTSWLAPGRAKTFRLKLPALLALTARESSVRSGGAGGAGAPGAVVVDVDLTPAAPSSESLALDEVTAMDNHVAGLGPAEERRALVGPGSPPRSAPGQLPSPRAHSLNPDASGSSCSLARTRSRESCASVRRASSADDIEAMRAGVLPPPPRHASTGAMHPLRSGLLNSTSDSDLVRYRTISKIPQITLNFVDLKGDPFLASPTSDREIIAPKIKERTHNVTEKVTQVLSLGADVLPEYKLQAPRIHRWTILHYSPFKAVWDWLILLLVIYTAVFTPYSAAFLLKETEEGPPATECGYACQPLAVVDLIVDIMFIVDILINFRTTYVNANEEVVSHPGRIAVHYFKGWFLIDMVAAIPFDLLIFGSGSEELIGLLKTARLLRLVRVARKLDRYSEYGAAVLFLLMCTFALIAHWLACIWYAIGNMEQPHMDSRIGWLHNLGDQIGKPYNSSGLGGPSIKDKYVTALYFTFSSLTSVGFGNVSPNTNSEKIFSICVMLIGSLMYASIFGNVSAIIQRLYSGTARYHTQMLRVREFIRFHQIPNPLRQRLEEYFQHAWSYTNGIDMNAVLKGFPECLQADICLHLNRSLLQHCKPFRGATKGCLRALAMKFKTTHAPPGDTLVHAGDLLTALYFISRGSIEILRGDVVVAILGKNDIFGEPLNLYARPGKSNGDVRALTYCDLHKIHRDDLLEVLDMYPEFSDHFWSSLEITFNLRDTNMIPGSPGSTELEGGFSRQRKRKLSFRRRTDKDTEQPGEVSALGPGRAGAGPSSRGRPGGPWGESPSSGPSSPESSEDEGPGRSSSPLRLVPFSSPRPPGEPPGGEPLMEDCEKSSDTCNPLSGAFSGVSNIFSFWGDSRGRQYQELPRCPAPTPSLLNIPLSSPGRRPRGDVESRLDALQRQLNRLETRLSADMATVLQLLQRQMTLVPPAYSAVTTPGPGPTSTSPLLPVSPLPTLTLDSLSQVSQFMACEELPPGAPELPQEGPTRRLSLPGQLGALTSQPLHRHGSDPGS

Compound	hERG current change (%, negative = inhibition) at 1uM
COc1ccc(-c2nn3c(-c4ccccc4)nnc3s2)cc1OC	2.33%
CS(=O)(=O)N1CCN(C(=O)COc2ccccc2)CC1	13.7%
COc1ccc(CC(CC(=O)O)C(=O)Nc2ccc(Cl)c(Cl)c2)cc1 (stereo not shown)	13.5%
O=C(CSc1n[nH]c(=O)n1C1CC1)Nc1cc(Cl)ccc1Oc1ccccc1	-0.215%
CCC(CC)C(=O)NCc1ccc(OC)cc1	-2.13%
CN(C)CCCN(C(=O)c1ccc(S(=O)(=O)N2CCc3ccccc3C2)cc1)c1nc2c(F)cc(F)cc2s1.Cl	-0.987%
O=C(C1CCC(=O)N(C2CC2)C1)N1CCN(c2ccc(Cl)cc2)CC1 (stereo not shown)	-9.81%
COCCCNC(=S)Nc1ccc2c(c1)OCCO2	1.06%
COC(=O)c1ccccc1NC(=O)CN1CCC(NC(=O)c2ccccc2C)CC1	-4.92%
COc1ccccc1C(=O)Nc1sc(C(=O)N2CCCC2)c(C)c1C#N	13.8%
COc1ccc([C@@H]2CC=C(C(=O)O)[C@H](c3ccc(Cl)cc3)N2S(=O)(=O)c2ccc(C)cc2)cc1OC	7.01%
Cc1ccccc1OCCOc1ccc([N+](=O)[O-])cc1/C=N/n1cnnc1	13.6%
COc1ccc(C)cc1S(=O)(=O)N(C)CC(=O)N1CCN(C)CC1	12%
CN(Cc1cnn(C)c1)Cc1nc(-c2ccc(Cl)cc2)no1	8.9%
Cn1c(=O)[nH]c(=O)c2c1nc(Sc1ccccc1)n2CCc1ccccc1	17%
CCOC(=O)N1CCN(c2nc(C)c3c(n2)CC(C)CC3=O)CC1 (stereo not shown)	18.1%
COc1cc(-n2c(=O)c3ccccc3n(CC(=O)c3ccccc3)c2=O)cc(OC)c1OC	14.7%
NCCNc1ccc([N+](=O)[O-])c(NC2CC2)c1	1.59%
O=C(c1ccc(Cn2c(=S)[nH]c3ccc(Br)cc3c2=O)cc1)N1CCN(C2CCCCC2)CC1	12.7%
COc1ccc(C(C(=O)NC2CCCCC2)N(C(=O)c2csnn2)C2CC2)cc1 (stereo not shown)	-3.64%
Cc1cc(NC(=O)c2cc(C3CC3)on2)no1	19%
C=CC1CN2CCC1CC2C(OC(C)=O)c1ccnc2ccc(OC)cc12 (stereo not shown)	1.56%

Compound	hERG current change (%, negative = inhibition) at 1uM
CC(=O)Nc1ccc(/C=N/NC(=O)CCN2CCN(c3ccccc3)CC2)cc1	5.44%
CC(C)(C)C(=O)CN1C(=O)NC(c2ccccc2)(c2ccccc2)C1=O	8.75%
CCOC(=O)C1=C(C)NC(=O)NC1c1ccc(Br)o1 (stereo not shown)	11.2%
CCN1C(=O)C2C(c3cccc(F)c3)NC(C)(C(=O)OC)C2C1=O (stereo not shown)	15.8%
COc1ccc(COC(=O)C2CCN(S(=O)(=O)c3ccc(C)cc3)CC2)cc1	13.7%
COc1ccccc1N1CCN(CC(=O)Nc2nc(C)c(C(=O)N(C)C)s2)CC1	12.9%
O=C(c1cc(Cl)ccc1Cl)N1CCN(Cc2ccccc2)CC1	14.1%
CC(c1ccccc1)C1CC(=O)N(c2cc(Cl)ccn2)C1=O (stereo not shown)	14.2%
CCc1cc(=O)oc2c(C)c(OCC(=O)N3C[C@H]4C[C@@H](C3)c3cccc(=O)n3C4)ccc12	10.8%
CCN(C(=O)CSc1nc2ccccc2o1)C1CCS(=O)(=O)C1 (stereo not shown)	6.16%
CCOC(=O)c1c(NC(=O)COc2ccccc2OCC)sc2c1CC(C)(C)NC2(C)C	21%
Cc1ccc(CNC(=O)C(C)OC(=O)c2ccco2)cc1 (stereo not shown)	1.22%
CCOC(=O)/C(C#N)=C/c1cccn1-c1ccc(Cl)cc1	3.64%
CCn1c2ccccc2c2cc(CN3CCN(S(=O)(=O)CC)CC3)ccc21.O=C(O)C(=O)O	7.34%
O=C(C1CC1)N1N=C(c2ccccc2)CC1(O)C(F)(F)C(F)(F)F (stereo not shown)	10.8%
CCCCCCCC(=O)NC(Nc1ccc(S(N)(=O)=O)cc1)C(Cl)(Cl)Cl (stereo not shown)	8.06%
Cc1cccc(-n2c(-c3ccncc3)n[nH]c2=S)c1C	13.5%
COc1cc(-n2c(=S)[nH]c3ccccc3c2=O)c(Cl)cc1Cl	9.08%
CS(=O)(=O)N1CCN(Cc2ccc(C(F)(F)F)cc2)CC1.O=C(O)C(=O)O	12.6%
Cc1cc(C)c(-n2c(O)c(/C=N/N3CCCCC3c3cccnc3)c(=O)[nH]c2=O)c(C)c1 (stereo not shown)	13.4%
COCc1cc(/C=N\NC(=O)COc2ccccc2)ccc1OC	7.07%
